Variants at the floor of the assay are shown more often than the library holds them.
B1: TPR 5TU (parent)
chain: GGAUCUUCUCGAUCUAACAAAAAAGACAAAUCUGCCACAAAGCUUGAGAGCAUCUUCGGAUGCAGAGGCGGCAGCCUUCGGUGGCGCGAUAGCGCCAACGUUCUCAACUAUGACACGCAAAACGCGUGCUCCGUUGAAUGGAGUUUAUCAUG

Variants of: B1
Experiment: polymerase ribozyme fitness, log enrichment relative to wild type (log ratio); higher = more active; in vitro selection for triplet polymerase activity
In short: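 Libraries of mutants in each subunit of a heterodimeric triplet polymerase ribozyme were generated by PCR and transcribed. In triplicate, each went through one in vitro selection round: annealing with biotinylated primer, partner subunit and triplets; frozen incubation at −7 °C; gel excision of extended constructs; streptavidin-bead capture; RT-PCR. Fitness, taken from Illumina sequencing of input and output libraries, is the logarithm of a genotype's enrichment over wild-type enrichment, averaged across replicates with inverse-variance weights. The logarithm is base 2, and genotypes needed ≥10 input reads and ≥1 read per output to be kept.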

Row | Variant | polymerase ribozyme fitness (log ratio)
1 | A17G C18U A20C A37U U55G G70A U144A | ≤ -4.2
2 | A17U A21C U82A C105G G128A G141A A142G | ≤ -4.2
3 | A17U C87U U90C C99G | -3.69
4 | C18A C96G C108A U109A A115G A142G | ≤ -4.2
5 | C18A A23C C27U A28C C43G G86U | ≤ -4.2
6 | A17U C93G U102A A107C G143A | ≤ -4.2
7 | A17U C87U G94A C103G | ≤ -4.2
8 | A17U A28U G50C C125G | ≤ -4.2
9 | C18U A24U A29C C32U C87U U135G | ≤ -4.2
10 | A17U G58C G80C C93U | ≤ -4.2
11 | A17U A40U G58U C96U G133A G143C | ≤ -4.2
12 | C18U A20G C87G U102G | ≤ -4.2
13 | C18G U55A | -0.923
14 | A17U A20G G42C C85U G128C | ≤ -4.2
15 | A17U U55A G84C C95G U148A | -3.23
16 | C18A U56A G92U C105U C114A U144G | -3.79
17 | A17U C93U A97G G124A C131G U145A | ≤ -4.2
18 | A17G A60C C76A C93U C96U C123G G136U | ≤ -4.2
19 | C18G A40U U53A G59A A97U U135G U144A | ≤ -4.2
20 | C18A C87U A91C | ≤ -4.2
21 | A17U G42A A52G C87A | ≤ -4.2

Row | Variant | polymerase ribozyme fitness (log ratio)
22 | C18U A20U A28C G50C G88U C96A G124U C125U U148A | ≤ -4.2
23 | A17U G58A A91U C95G U102C A113C | ≤ -4.2
24 | A17U G46A G50A G59C C93U G94A A113G C149A | ≤ -4.2
25 | A17U C72U C99U | -1.38
26 | A17U G86C G88C C93A A98G U111G G136A | ≤ -4.2
27 | A17U G48A C51G U55G C96G C105U C118U G136U G141U | ≤ -4.2
28 | A17U C27A A37U C75G G86A G133A | ≤ -4.2
29 | C18G C36A C96U A138U | -4.03
30 | C18G A22C A26C C76U C87U C129G | ≤ -4.2
31 | A17U A40U C123U | -0.36
32 | A17U A39C G46A G48A | ≤ -4.2
33 | C18A A30G G34A G71A G86U U139C | ≤ -4.2
34 | C18G U31C G42U U56A G71U C95G | ≤ -4.2
35 | A17U C38U C95U U102G A106U U148A | ≤ -4.2
36 | C18G A19U A28C G58C C85U | ≤ -4.2
37 | A17G C27U C32G C54U G81C C132G U135A | ≤ -4.2
38 | A17U A49G G86U G140A | ≤ -4.2
39 | A17U A52G G58C G86U A97G C125A | ≤ -4.2
40 | A17G A91U C114A G143C | ≤ -4.2
41 | C18G A23C U53A U127C U151G | ≤ -4.2
42 | A17U C32G G48A C79G G84U G86U C108U | ≤ -4.2

Row | Variant | polymerase ribozyme fitness (log ratio)
43 | A17U A19U A22U U61A G83A G84A G100U | ≤ -4.2
44 | C18G A29U U31G U44C A49U C76U A98G C118A | ≤ -4.2
45 | C18G A21U G80C C93G A107G U151G | ≤ -4.2
46 | A17U A30G C36U G70A C95G U144G | ≤ -4.2
47 | C18G A30C A40C G83C C93A A106U C108A | ≤ -4.2
48 | A17U A19U C36A G58U C93A G94A A121C U148G | ≤ -4.2
49 | C18U A23U U31G A41C C85G C93G C96A A122G G140A | ≤ -4.2
50 | A17G C32G A91U G141A | ≤ -4.2
51 | A17U G50U G88C C114G G141C | ≤ -4.2
52 | C18G A29C G83A | ≤ -4.2
53 | A17U C35U A97U G141A | -1.34
54 | C18G C38U A73C G100A C103G | ≤ -4.2
55 | A17U C116U | -0.46
56 | A17G C32A G42A A60C G68C C85G U111G | ≤ -4.2
57 | A17U A29C C54G C125U G136C | ≤ -4.2
58 | A17G C129G | -3.57
59 | C18A U55A G68C U90G | ≤ -4.2
60 | A17U C51U U55A U78A G81C C123G | ≤ -4.2
61 | A17U G50C C105G G124A C132U A138C | ≤ -4.2
62 | A17U A52C C99U C105U G124A G126C | ≤ -4.2
63 | A17U A22U A29G A47U C63A A73U | ≤ -4.2

Row | Variant | polymerase ribozyme fitness (log ratio)
64 | C18A A19C A40C C85U | 0.244
65 | A17U A20U C87G U102G U145G | ≤ -4.2
66 | C18U A20U U53A C118G U148A | ≤ -4.2
67 | A17U A26G C85U | ≤ -4.2
68 | C18G U33G C72U G80C C87G C108G G128U U135G | ≤ -4.2
69 | A17U A29U G42C U61A G84A A97U U102G A107U C108G G141C U145C | ≤ -4.2
70 | A17G A52G G84A G94U G143A | ≤ -4.2
71 | A17U C35U A47C G92C G128A U134C | ≤ -4.2
72 | A17U C18U A22G C43U C51U C85A G86U | ≤ -4.2
73 | A17U A26C A49U G50C C95A C105A | ≤ -4.2
74 | A17U A20C G25A C27U G68U A97U G100C C116G G141C | ≤ -4.2
75 | A17G C108U | -3.09
76 | C18A U55G C85A C118U | -2.09
77 | C18A U31G C35G A39G C85G | ≤ -4.2
78 | C18G A52C G59U A60G G88C C99A C105U U109G A147U | ≤ -4.2
79 | A17G U55A G140U U146A | ≤ -4.2
80 | A17U G80C C93A U101G | ≤ -4.2
81 | C18G G50A C96G A121C | -2.18
82 | C18G G92C C129U A150U | -3.54
83 | A17G G34U C35G A60G C99A U109C | ≤ -4.2
84 | A17G C35U G74C C105G A150C | ≤ -4.2
